Experimental data: the supplement of paper PMC3334620
Whole data set: some 33,000 sequences, median “E-score (-0.5 to 0.5)” near -0.053, cut for the highest 2% near 0.37. The list shows a part of the results.

biological target: Hap1 (UniProt P0CE41); test: PBM E-score (8-mer binding enrichment) (E-score (-0.5 to 0.5)); higher = stronger / more preferred TF binding; most listed sequences are background and not binding sites; conditions: protein concentration: 200 nM; construct: GST-DNA-binding domain
Description: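 Universal 'all 10-mer' protein binding microarrays (Agilent AMADID 015681) probed with GST-tagged S. cerevisiae TFs (full-length or DBD) made by in vitro transcription/translation (PURExpress), about 100-200 nM. Bound TF was detected with fluorescent anti-GST. Each ungapped 8-mer (which stands for itself and its reverse complement) is scored by the PBM enrichment score (E-score), a modified Wilcoxon-Mann-Whitney statistic from -0.5 to +0.5, computed with the Universal PBM Analysis Suite. Scale: above 0.35 generally sequence-specific binding.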

UniProt P0CE41, sequence (P0CE41 whole entry, the tested form may be a part): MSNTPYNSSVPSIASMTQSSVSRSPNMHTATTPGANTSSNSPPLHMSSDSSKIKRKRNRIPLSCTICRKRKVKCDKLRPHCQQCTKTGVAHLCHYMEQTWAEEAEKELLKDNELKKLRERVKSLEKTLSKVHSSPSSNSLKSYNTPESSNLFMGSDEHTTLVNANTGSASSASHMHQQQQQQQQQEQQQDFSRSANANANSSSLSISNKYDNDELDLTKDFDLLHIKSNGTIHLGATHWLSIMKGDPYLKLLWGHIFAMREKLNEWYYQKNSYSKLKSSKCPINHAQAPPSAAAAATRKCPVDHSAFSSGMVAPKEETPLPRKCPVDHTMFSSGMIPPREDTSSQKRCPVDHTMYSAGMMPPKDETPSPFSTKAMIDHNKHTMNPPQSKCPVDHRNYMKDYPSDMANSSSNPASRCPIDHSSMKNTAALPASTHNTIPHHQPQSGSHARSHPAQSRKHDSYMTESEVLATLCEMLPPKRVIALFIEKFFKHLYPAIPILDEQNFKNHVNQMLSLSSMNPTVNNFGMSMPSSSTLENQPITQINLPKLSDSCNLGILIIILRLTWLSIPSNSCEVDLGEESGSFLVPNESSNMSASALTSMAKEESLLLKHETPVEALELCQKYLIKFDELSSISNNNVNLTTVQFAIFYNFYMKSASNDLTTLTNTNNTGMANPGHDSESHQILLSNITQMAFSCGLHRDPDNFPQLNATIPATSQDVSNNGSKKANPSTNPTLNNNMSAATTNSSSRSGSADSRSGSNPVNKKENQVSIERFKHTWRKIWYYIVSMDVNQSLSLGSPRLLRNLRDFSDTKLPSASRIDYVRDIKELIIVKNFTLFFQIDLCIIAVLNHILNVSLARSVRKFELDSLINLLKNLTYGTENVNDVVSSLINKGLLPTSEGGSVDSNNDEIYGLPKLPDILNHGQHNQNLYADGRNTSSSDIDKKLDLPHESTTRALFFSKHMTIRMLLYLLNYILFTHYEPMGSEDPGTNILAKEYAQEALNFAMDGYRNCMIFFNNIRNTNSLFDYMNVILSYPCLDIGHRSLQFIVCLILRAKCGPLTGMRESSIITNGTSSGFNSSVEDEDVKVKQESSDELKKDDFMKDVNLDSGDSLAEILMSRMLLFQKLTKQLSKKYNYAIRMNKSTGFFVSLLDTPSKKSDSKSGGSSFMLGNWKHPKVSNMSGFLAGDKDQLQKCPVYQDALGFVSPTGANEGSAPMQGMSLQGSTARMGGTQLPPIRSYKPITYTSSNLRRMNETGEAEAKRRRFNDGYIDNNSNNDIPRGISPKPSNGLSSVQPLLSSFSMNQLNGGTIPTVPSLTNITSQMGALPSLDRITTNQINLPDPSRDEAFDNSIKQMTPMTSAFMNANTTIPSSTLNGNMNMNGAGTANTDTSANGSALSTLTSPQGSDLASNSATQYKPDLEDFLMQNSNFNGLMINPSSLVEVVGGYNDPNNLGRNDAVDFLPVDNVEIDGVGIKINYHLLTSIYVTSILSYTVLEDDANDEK

Row | Sequence | PBM E-score
1 | CTCAATGA | -0.0841
2 | CCCCGTAG | 8e-05
3 | ACCTATGG | -0.0323
4 | CTATCCCA | -0.245
5 | GAGAAACC | 0.0923
6 | AGACGAGG | -0.0977
7 | AGTAATTA | -0.134
8 | CCTCCTTA | -0.228
9 | ACGTGTGA | -0.223
10 | ACTGTTCG | 0.0461
11 | ATAACGCC | 0.316
12 | ATCGCGTA | -0.00116
13 | TAAACGTA | -0.178
14 | AACTCTTC | 0.0217
15 | AACCGGTG | 0.329
16 | TAGTTTGA | -0.0367
17 | CTCGTACA | -0.0854
18 | CGGGAATC | 0.318
19 | GCTGGGCC | -0.0162
20 | TATTCACA | 0.0793
21 | CACTCGCG | -0.0188
22 | ATGTGGAA | -0.0872
23 | GGAATAAC | 0.266
24 | CTGGTTAA | -0.112
25 | CCTCTTAG | 0.0746

Row | Sequence | PBM E-score
26 | TAGCGCCA | -0.128
27 | ACTTCAGA | -0.14
28 | CAACTGAG | -0.0425
29 | GACAACCA | -0.163
30 | CGGTCAAC | 0.264
31 | AGACGCCG | 0.182
32 | TAGGGATA | -0.0988
33 | GAAGCCGA | 0.308
34 | CGGCCCAC | 0.114
35 | GGCATCGA | -0.206
36 | CCCTCCGC | 0.036
37 | AATACACA | -0.178
38 | CCTGTTAA | -0.164
39 | ATAGAACA | -0.113
40 | AAAGGTCT | -0.0454
41 | AGAGTGTA | -0.192
42 | CGTCACTA | 0.0856
43 | CCAATCAG | -0.277
44 | AGCGGCAG | -0.016
45 | CCGTGTTA | 0.0303
46 | ACCTTTAG | -0.0283
47 | ACTAAGGC | -0.0482
48 | ATGTACTA | -0.14
49 | GTAGCGGA | 0.342
50 | CGTCGGGA | 0.203

Row | Sequence | PBM E-score
51 | CTGGTCGC | -0.00987
52 | ATTGGCAA | -0.122
53 | ACGCGGAT | 0.18
54 | ATTTCCCG | 0.301
55 | TAGAGGAA | -0.183
56 | ATCACGCA | -0.12
57 | AAAGCGCT | 0.123
58 | AACTGTGT | -0.00838
59 | GCTTGACA | -0.139
60 | AGCAAGCA | -0.307
61 | TCCATGAA | 0.0122
62 | CGAGCAAC | 0.0444
63 | GGTTACCA | 0.0587
64 | ACGGCCAT | 0.078
65 | GCCCCCGC | 0.0792
66 | GACGCTGA | -0.0921
67 | TCACGTAA | -0.306
68 | GTCGATTA | -0.0762
69 | CGGCCAAA | 0.191
70 | ATTGTTAA | -0.12
71 | CACCGCTA | 0.139
72 | CTGTTAAG | -0.143
73 | AACGTAAT | -0.248
74 | AGGCTCGC | 0.142
75 | CGAAGGAA | -0.148

Row | Sequence | PBM E-score
76 | ATCGGAGC | 0.396
77 | ATAAGGGA | -0.105
78 | ATGTTAAT | -0.0735
79 | GAGGGACA | -0.182
80 | ATTCTAAA | 0.0225
81 | CCAGCCGC | 0.181
82 | AGATTAAA | 0.0664
83 | CCATTGAC | -0.207
84 | TCCGTTCA | 0.169
85 | AGAGTACG | -0.0895
86 | AAATGGCA | -0.0283
87 | GTAGTATA | 0.0209
88 | AAGGCTTA | -0.264
89 | CATGCTCG | -0.161
90 | CAAAGGGC | -0.0894
91 | ATGGGACG | 0.00065
92 | ATTACCTG | -0.0504
93 | CCGCAGCA | 0.0447
94 | CTTTTAAA | 0.0478
95 | AAGGCCGT | 0.212
96 | AGTGTTAC | 0.0606
97 | AGGCGCCG | 0.0638
98 | ACCGCATG | -0.00118
99 | ACGCTTGA | -0.152
100 | CTAGAGTA | -0.173

Row | Sequence | PBM E-score
101 | ATCAATAG | -0.126
102 | AACCCTTC | -0.0491
103 | CTCCCTCA | -0.255
104 | AATTCGTC | -0.103
105 | AAATGGGG | -0.186
106 | ATAGGACA | -0.247
107 | CCACGTTA | -0.207
108 | ACTATCCA | -0.0344
109 | CGCGCAAC | 0.0444
110 | ATGGACCA | -0.194
111 | AATCTAAT | -0.06
112 | CGGCGGAA | 0.396
113 | ATCCGTGC | 0.169
114 | GTGTGTTA | -0.216
115 | GAGGACCA | -0.123
116 | TATTTGGA | -0.215
117 | GGCTATGA | -0.0592
118 | CATAGGAA | -0.189
119 | CCCAGACA | -0.136
120 | AGTCCTCC | -0.0508
121 | CCACGAGA | -0.13
122 | GCACTGAC | -0.0453
123 | GCCCTGGA | -0.0261
124 | CCCGATGC | 0.263
125 | ACACAAAC | -0.0187

Row | Sequence | PBM E-score
126 | ACACCAGT | -0.369
127 | AGAACCCA | -0.335
128 | GAACTCAC | -0.157
129 | CTTGAAGC | -0.0989
130 | ATAGGCGC | 0.0692
131 | CCCCGTCA | 0.091
132 | ACGTATAA | -0.121
133 | ACCCCTAG | -0.372
134 | ATTCCAGC | 0.0839
135 | AGTCTTCC | -0.0885
136 | CGGATGCA | 0.234
137 | GGTGAGAC | -0.117
138 | GAATTTGC | 0.14
139 | ACTAAAGT | -0.233
140 | AGGAAAGC | -0.0721
141 | CGACAATC | 0.0677
142 | CTACGAAA | -0.202
143 | CATAAAGA | -0.199
144 | AGCACCAC | -0.238
145 | TCAGTACA | -0.245
146 | GCCGTGCC | 0.177
147 | CTCTGACA | -0.112
148 | AATACCGT | 0.252
149 | ATGTTCCC | -0.0217
150 | AACTGCAA | -0.174

Row | Sequence | PBM E-score
151 | CACCGTGC | -0.0755
152 | CCGCGGAA | 0.317
153 | CCCGGACC | 0.361
154 | GGCAACGA | 0.0544
155 | ACGATACG | -0.263
156 | CGGTCTCC | 0.297
157 | CGAAGGGA | 0.0478
158 | CCCGACCG | 0.379
159 | CTAGTCCA | -0.0856
160 | GAATCGGA | 0.366
161 | AGTTTGAT | 0.00106
162 | CAACCCCA | -0.0735
163 | CAAAGTGA | -0.0346
164 | CAGACACC | -0.08
165 | CCAAACCA | -0.124
166 | GGCGCACC | 0.107
167 | AGACGTAT | -0.0652
168 | AGTGATCA | -0.103
169 | GTTATTAA | 0.145
170 | AACTGCAG | -0.277
171 | TAGGATCA | -0.131
172 | AACGCGAG | -0.0745
173 | GCTGCAGA | -0.161
174 | GACACTTA | -0.119
175 | ATGTCAAA | -0.0933

Row | Sequence | PBM E-score
176 | AAACACTT | -0.0452
177 | GCCCCGGA | 0.391
178 | GCAACCCA | -0.304
179 | ACACGCAA | -0.12
180 | CGGGTCTA | 0.288
181 | AGTAGTGG | -0.0819
182 | ACTGACCC | 0.185
183 | AGGCGGGC | 0.0317
184 | ACATGTCA | -0.224
185 | AATTAGAA | -0.0308
186 | ATAAAGGC | 0.157
187 | ACCCGTAC | 0.0493
188 | AGAACTCA | -0.157
189 | AGATGGAT | -0.176
190 | AGTCGTTC | -0.247
191 | ACTCAAAA | -0.137
192 | CACCTCGA | -0.0683
193 | CCCAGGTC | -0.325
194 | ATTCTTAC | 0.0171
195 | CCTGCGCC | -0.097
196 | ATTAGAGG | -0.13
197 | AAAACTCG | 0.0961
198 | TCACTGAA | 0.0202
199 | CATCTCTC | 0.0672
200 | CCCCAGAC | -0.159

Row | Sequence | PBM E-score
201 | ACGCAACG | 0.0792
202 | ATATAGAC | -0.105
203 | CACCGTAA | 0.0159
204 | ATGGAGAA | 0.0808
205 | AGTCCGAC | 0.36
206 | AGAACGGA | 0.168
207 | GGAAATAC | 0.343
208 | AGCGTTAC | -0.204
209 | CCTCGACA | -0.324
210 | CTGTCAGA | -0.203
211 | CTACAGTA | -0.196
212 | CTGCAATC | -0.034
213 | TAAGATGA | -0.2
214 | ATCCGTAG | 0.231
215 | GACAATAC | -0.00034
216 | CGAGAAAA | 0.0489
217 | CTAATCGC | 0.14
218 | GTGAGGTA | -0.0932
219 | CAGCCACC | 0.0173
